The values below come from ChEMBL document CHEMBL4888484, “Replenishing the malaria drug discovery pipeline: Screening and hit evaluation of the MMV Hit Generation Library 1 (HGL1) against asexual blood stage Plasmodium falciparum ,using a nano luciferase reporter read-out” (2022).

Each structure is given as a SMILES string. The campaign covered roughly 150,000 compounds. About 540 (0.36%) showed an effect of 50% or more. The list shows a part of the results.

The assay concerns Plasmodium falciparum. Kind of assay: Primary screen in NF54 nanoGlo assay, in single point, at 2uM, 72h; a lower Z score goes with more inhibition. The format is functional, Erythrocyte. The note with it: timepoint 72 hour.
As for `O=C(CCc1nc(-c2nnc[nH]2)no1)N1CC[C@H](Oc2cccc(Cl)c2)C1`, the “% Inhibition” value stood at 4% and the Z score is on record as -0.54.
Taken in the same sequence, the figures for `O=C(Cn1ccccc1=O)N1CCC2(CC1)CNc1ccccc12` were 4% and -0.58.
For the molecule `CC[C@H](C)n1c(=O)[nH]c2c1c(=O)n(C)c(=O)n2C`, the “% Inhibition” value is reported as -1% and the Z score is given as 0.17.
For the molecule `COCCc1noc(CNC(=O)c2ccncc2C)n1`, the “% Inhibition” value came to 0% and the Z score is reported as -0.02.
Taken in the same sequence, the figures for `Cc1cc(CN(CC2CCC2)c2ccccc2)nn1C` were -6% and 0.99.
With `Cc1cc(NC(=O)N2CC(S(=O)(=O)Nc3ccccc3)C2)no1`, the “% Inhibition” value is -5% and the Z score is on record as 0.68.
Taken in the same sequence, the figures for `COc1ccc(NC(=O)Cn2nc3c(N4CCOCC4)nccn3c2=O)c(OC)c1` were -8% and 0.8.
Take `Cc1cc([C@]2(C)NC(=O)N(Cc3nc(C)c(C)s3)C2=O)c(C)o1`: the “% Inhibition” value is 2% and the Z score was -0.22.
As to `O=C1CCC2(CCN(C(=O)[C@H]3CC[C@@H](O)CC3)CC2)CN1CCc1ccncc1`, the “% Inhibition” value is given as -26% and the Z score was determined as 2.38.
With `O=C(NC1CC1(F)c1ccccc1)N1CCC(c2ccc3cccnc3n2)CC1` (stereo not drawn), the “% Inhibition” value is given as 4% and the Z score is -0.66.
`O=C1C[C@@H](c2c[nH]nc2-c2ccccc2)c2ccc(N3CCNC3=O)cc2N1`: the “% Inhibition” value is given as -7% and the Z score turned out to be 1.26.
For `COc1cc(OC)c(NC(=O)N(CCN(C)C)C2CCOCC2)cc1Cl`, in that order: -5% and 0.81.
With `O=C(CNC(=O)COc1ccccc1)NCCc1c[nH]c2ccccc12`, the “% Inhibition” value was 10% and the Z score is reported as -1.33.
For `O=C(NCc1c(F)cccc1Cl)c1cnc(-c2cccnc2)nc1`, in that order: -19% and 1.75.
Regarding `CCCn1cc(S(=O)(=O)NCc2nc(CC(C)C)no2)cn1`, the “% Inhibition” value is on record as -3% and the Z score was 0.6.
In the case of `O=C(Cn1cnc2c(c1=O)CCCC2)Nc1ccc(Oc2ccccc2)cc1`, the “% Inhibition” value is -1% and the Z score was determined as 0.08.
With `CN(CCc1ccccn1)C(=O)c1cnc2c(c1)CCCC2`, the “% Inhibition” value is -2% and the Z score is on record as 0.15.
In the case of `CC(C)(Oc1cccc(Cl)c1)C(=O)Nc1nc2ncccn2n1`, the “% Inhibition” value came to 2% and the Z score is -0.31.
`CNc1nc(N2CCOCC2)nc2ccccc12`: the “% Inhibition” value is listed as 2% and the Z score is listed as -0.34.
For `Cc1cc(C(=O)N2C[C@H](NS(=O)(=O)N(C)C)[C@@H](C(C)C)C2)[nH]n1`, in that order: -7% and 1.2.
As for `Cc1nc2ccccc2n1CC1CCN(S(=O)(=O)c2ccc(Cl)s2)CC1`, the “% Inhibition” value stood at 10% and the Z score is reported as -1.09.
For the molecule `N#Cc1c2n(c3c(=O)[nH]cnc13)CCC2`, the “% Inhibition” value was -6% and the Z score stood at 0.67.
Taken in the same sequence, the figures for `CCC(C)Nc1ncnc2sc(C3COc4ccccc4O3)cc12` (stereo not drawn) were -6% and 1.02.
For `O=C(N[C@H]1CCCc2c(O)cccc21)c1cccc(-n2ccnc2)c1`, in that order: 0% and 0.01.
Take `CN(C)C(=O)COC1CN(S(=O)(=O)c2cccc(Cl)c2F)C1`: the “% Inhibition” value is reported as 6% and the Z score was -1.09.
`O=C(c1ccc2c(c1)OCO2)N1CCOC[C@@H](CO)C1`: the “% Inhibition” value turned out to be 0% and the Z score is recorded as -0.03.
Turning to `CC(C)(C)OC(=O)N1CC(CC(=O)Nc2cccc(C#N)c2)C1`, the “% Inhibition” value was -8% and the Z score came out at 1.26.
For the molecule `CC(C)CO[C@@H](C)c1noc(CN2CCC(Nc3ccccc3F)CC2)n1`, the “% Inhibition” value was 6% and the Z score is listed as -0.8.
As to `CCN1CCN(CC(=O)NCC#N)c2ccccc21`, the “% Inhibition” value is 14% and the Z score is listed as -1.74.
Taken in the same sequence, the figures for `O=C(O)C1(C[C@H]2CCCCO2)CCN(c2noc(-c3ccccc3)n2)CC1` were -5% and 0.79.
As for `CCOC(=O)CNC(=O)c1ccc(C)nc1`, the “% Inhibition” value is reported as -4% and the Z score is on record as 0.47.
As to `CCN1CCC[C@@H]1CNC(=O)c1sccc1C`, the “% Inhibition” value came to 6% and the Z score was -0.59.
With `CNC(=O)C1(F)C(F)(F)C(F)(F)C(F)(F)C(F)(F)C1(F)F`, the “% Inhibition” value turned out to be 1% and the Z score is -0.08.
Consider `COc1ncc(NC(=O)C(C)C)c(OC)n1`, for which the “% Inhibition” value was -9% and the Z score came out at 1.73.
With `CCOCCN(C)Cc1cnc2cnccn12`, the “% Inhibition” value is listed as -20% and the Z score was 2.32.
Taken in the same sequence, the figures for `O=S1(=O)CCCN(C[C@H]2CN(c3ccccc3)CCO2)CC1` were -4% and 0.7.
For `COc1cc(C)c(S(=O)(=O)Nc2cccc(-c3ccc(N4CCCCC4)nn3)c2)cc1C`, in that order: 0% and 0.06.
As for `CC(=O)N1C2CCC1CC(Oc1ccccn1)C2` (stereo not drawn), the “% Inhibition” value is listed as -20% and the Z score came out at 2.33.
Taken in the same sequence, the figures for `CC[C@@H](N)CNc1ccnc(-c2cc(-c3cnn(C)c3)ccc2O)n1` were -1% and 0.15.
In the case of `c1nc(NCCc2cc[nH]n2)cc(C2CC2)n1`, the “% Inhibition” value was -8% and the Z score turned out to be 1.55.
As to `CN1C[C@@H](CCNC(=O)Nc2cn(C)nc2C(F)(F)F)CC1=O`, the “% Inhibition” value was -14% and the Z score is listed as 1.39.
For `O=C([C@H]1CC(=O)N(c2ccc3c(c2)CCC3)C1)N1CCN(c2cnccn2)CC1`, in that order: -11% and 1.7.
For `c1ccc(-c2ccc([C@@H]3C[C@H](c4cccs4)n4ncnc4N3)cc2)cc1`, in that order: -8% and 1.3.
For `O=C(NC[C@H]1C[C@@H]1c1ccc(Cl)cc1Cl)c1cnccn1`, in that order: -18% and 1.97.
`O=S(=O)(CCc1ccccn1)NCC1CCCCCCC1`: the “% Inhibition” value is -12% and the Z score worked out at 1.3.
For the molecule `CN([C@H]1CCOC1)S(=O)(=O)c1ccc(Cl)c(F)c1Cl`, the “% Inhibition” value turned out to be 0% and the Z score is reported as -0.03.
For `Cc1cc(C(=O)N2CCC(n3cnc4ncccc4c3=O)CC2)[nH]n1`, in that order: -9% and 1.16.
As for `Nc1ncccc1CNS(=O)(=O)c1cccc(C(=O)N2CCCC2)c1`, the “% Inhibition” value is 0% and the Z score is given as -0.08.
Consider `CNC(=O)Cc1noc(CCc2c[nH]c3ccccc23)n1`, for which the “% Inhibition” value was 30% and the Z score is recorded as -3.37.
Taken in the same sequence, the figures for `CN(Cc1ccncc1Cl)C[C@]1(O)CCc2ccccc21` were 14% and -1.84.
For `CCOc1cnn(-c2ccc(Cl)cc2)c(=O)c1Nc1ccc(C(=O)NCCc2ccccn2)cc1`, in that order: 7% and -0.86.
Taken in the same sequence, the figures for `CC(C)(C)n1ncn(Cc2cc(=O)n3ccccc3n2)c1=O` were -7% and 1.3.
Take `CC(=O)N1CC(NC(=O)NC[C@H](C)C2CC2)C1`: the “% Inhibition” value is -2% and the Z score is listed as 0.37.
For `O=C(N[C@H]1CCCNC1=O)c1coc(COc2cccc(F)c2)n1`, in that order: -5% and 0.56.
For `Cc1nc2ncnn2c2ccn(CCc3cnc[nH]3)c(=O)c12`, in that order: -9% and 1.24.
Taken in the same sequence, the figures for `CCOc1ccccc1CN(CCO)C(=O)[C@@H]1CCC[C@H](O)C1` were 2% and -0.29.
Regarding `O=C(c1cccs1)N1CC[C@@H]2COCCN(Cc3cccnc3)[C@@H]2C1`, the “% Inhibition” value is reported as -4% and the Z score is given as 0.56.
Taken in the same sequence, the figures for `Fc1ccc(CNc2nc(C3CC3)no2)cc1` were 4% and -0.7.
In the case of `Cc1ccc([C@@H](C)CCN(C)CCn2ccnc2C)o1`, the “% Inhibition” value is given as -1% and the Z score turned out to be 0.15.
As to `CC(C)NC(=O)[C@H]1CCCN(c2nc3ncn(CC(=O)N4CCc5ccccc5C4)c(=O)c3s2)C1`, the “% Inhibition” value is -6% and the Z score was 0.89.
Take `C[C@H]1CN(Cc2nc(C3CC3)nn2C)C(C)(C)CN1Cc1nc(C2CC2)nn1C`: the “% Inhibition” value was -24% and the Z score stood at 3.17.
Take `Cc1cccc(OCCCC(=O)N2CCCCCC2)c1C`: the “% Inhibition” value is -2% and the Z score amounted to 0.3.
For `CN1CCN(C(=O)NCc2nnc3n2CCC3)[C@@H](CNC(=O)OC(C)(C)C)C1`, in that order: -17% and 2.35.
`COc1ccc(OC)c(C(=O)N(Cc2ccc3c(c2)OCO3)Cc2cc3ccc(Cl)cc3nc2N(C)C)c1`: the “% Inhibition” value was -13% and the Z score amounted to 1.53.
In the case of `CC(C)c1nc(CN(C)Cc2ccncc2)no1`, the “% Inhibition” value was 1% and the Z score is -0.2.
Taken in the same sequence, the figures for `CCCN1CCC(N[C@H]2C[C@@H](C(=O)N3CCc4cc(OC)c(OC)cc4C3)N(C/C=C/c3ccccc3)C2)CC1` were 4% and -0.69.
Taken in the same sequence, the figures for `COc1ccc(C(=O)NC2CCN(c3cn[nH]c(=O)c3)CC2)cn1` were 1% and -0.07.
Taken in the same sequence, the figures for `Cc1ccc(F)c(C(=O)N2C[C@H]3CC[C@@H](C2)[C@H]3N(C)C)c1Cl` were 2% and -0.48.
On to `O=C([C@@H]1CCCN1C(=O)Nc1ccccc1)N1CCn2nccc21`, for which the “% Inhibition” value was -7% and the Z score turned out to be 1.12.
As to `CCOc1ccccc1CNC(=O)[C@@H]1CCCN1c1nnc(N2CCCC2=O)s1`, the “% Inhibition” value is listed as -3% and the Z score amounted to 0.44.
For `Cc1ccc(NC(=O)OC(C)(C)C)cc1NCc1cn(C)nn1`, the “% Inhibition” value is listed as -6% and the Z score came to 0.93.
Take `Cn1ccc2c(-c3nc([C@H]4CCOC4)no3)cccc21`: the “% Inhibition” value was -7% and the Z score is 1.47.
With `Cc1c(NC(C)C(C)C)cccc1C(=O)NC1CCN(C)C1=O` (stereo not drawn), the “% Inhibition” value is recorded as 3% and the Z score is -0.58.
For `Cc1cnc(CCNC(=O)CC2CCCC2)n1Cc1ccc(F)cc1`, in that order: -14% and 1.57.
`CC1(O)CN(C(=O)[C@](C)(O)c2ccc(F)c(Br)c2)C1`: the “% Inhibition” value is on record as 25% and the Z score was -2.92.
Take `CCCn1ncc(CN2CCc3ccc(OC)cc3[C@@H]2C)c1C`: the “% Inhibition” value is listed as -14% and the Z score is listed as 1.84.
For `C[C@@H](C(=O)NCC(F)(F)F)N(C)Cc1nccs1`, in that order: -10% and 0.83.
For `CCc1cc(=O)[nH]c(-n2ncc(C(=O)NCCc3ccccc3)c2C)n1`, in that order: 15% and -1.98.
For the molecule `C[C@@H](CC(=O)N1CCN(c2ccccc2F)CC1)Cc1nnc2c(=O)n(-c3cccc(F)c3)ccn12`, the “% Inhibition” value is recorded as -8% and the Z score turned out to be 1.12.
For `COc1cccc2[nH]cc(C(CC(=O)NC3CCS(=O)(=O)C3)c3ccccc3)c12` (stereo not drawn), in that order: -13% and 2.01.
For `C[C@@H](CC(=O)NCCc1nnc2n1CCCC2)c1cccc(C(F)(F)F)c1`, in that order: -14% and 1.47.
For `CC(C)(C)OC(=O)N1CC2(CC(=O)NCCN2Cc2cc[nH]n2)C1`, in that order: 8% and -0.95.
Consider `CC(C)c1ncsc1C(=O)NCCCN1CCCO[C@@H](C)C1`, for which the “% Inhibition” value was determined as 12% and the Z score is -1.85.
Regarding `O=C(c1ccccc1)N1C[C@@H]2C[C@@H](O)CN2C2(C1)CN(C(=O)c1ccccc1)C2`, the “% Inhibition” value was -2% and the Z score is recorded as 0.38.

Usually % Inhibition stands for the change of the read-out against control, counted positive when it falls.
